Experimental data as given in US7514408B1, “β-secretase enzyme compositions and methods” (Elan Pharmaceuticals, Inc., priority 1999, dated 2009).
Not every detail of the peptide structures is certain; ends, links or a residue may be inferred. Square brackets hold non-standard residues; d marks the D form. Peptide text beside a SMILES is read from it. Sta = CC(C)C[C@H](N)[C@@H](O)CC(=O)O; Phg = N[C@H](C(=O)O)c1ccccc1; Tle = CC(C)(C)[C@H](N)C(=O)O; Abu = CC[C@H](N)C(=O)O

Molecular target: β-secretase (Homo sapiens, UniProt P56817)
Sequence (P56817 46-501): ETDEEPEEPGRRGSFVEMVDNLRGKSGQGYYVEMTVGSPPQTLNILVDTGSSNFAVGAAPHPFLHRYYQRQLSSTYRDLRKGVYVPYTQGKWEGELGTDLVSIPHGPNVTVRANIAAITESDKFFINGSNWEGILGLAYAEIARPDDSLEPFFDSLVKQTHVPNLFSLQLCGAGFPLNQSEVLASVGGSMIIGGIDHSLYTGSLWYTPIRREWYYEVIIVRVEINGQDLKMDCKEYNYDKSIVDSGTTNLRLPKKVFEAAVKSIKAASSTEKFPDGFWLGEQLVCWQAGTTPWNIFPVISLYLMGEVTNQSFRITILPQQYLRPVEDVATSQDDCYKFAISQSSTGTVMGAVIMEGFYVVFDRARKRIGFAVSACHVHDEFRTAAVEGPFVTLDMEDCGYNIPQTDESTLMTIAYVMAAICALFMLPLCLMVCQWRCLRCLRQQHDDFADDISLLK
Test: MBP C125 assay of peptide inhibitors
Format: biochemical
Conditions: heptamer peptides, read-out: IC50 Group
Experimental: The substrates for these studies were synthesized using solid support sequential synthesis as described in Example 7. Assays of the inhibitory activity were performed in the MBP C125 assays described in Example 4 and IC50 values were generated for the heptameric inhibitors are reported in Table 9. Preferred inhibitors of the invention are those compounds in Group III, particularly preferred inhibitors are in Group II and the most preferred are the inhibitors of Group I.
MBP-C125 Assay: Two recombinantly-expressed proteins (FIG. 19 and FIG. 20) were used as substrates for β-secretase. The preferred substrate (FIG. 19) was expressed in E. coli as a fusion protein of the last 125 amino acids of APP fused to the carboxy-terminal end of maltose-binding protein (MBP), using commercially available vectors from New England Biolabs. The s-cleavage site was thus 26 amino acids downstream of the start of the C-125 region. This latter site is recognized by SW192.
Recombinant proteins were generated with both the wild-type APP sequence (MBP-C125 WT) at the cleavage site ( . . . Val-Lys-Met-Asp-Ala . . . ). (SEQ ID NO:54) or the “Swedish” double mutation (MBP-C125 SW) ( . . . Val-Asn-Leu-Asp-Ala..) (SEQ ID NO:51). […] This amino-terminal fragment can be recognized on Western blots with the same Ab, or, quantitatively, using an anti-MBP capture-biotinylated SW-192 reporter sandwich format, as shown in FIG. 19.
Anti-MBP polyclonal antibodies were raised in rabbits (Josman Labs, Berkeley) by immunization with purified recombinantly expressed MBP (New England Biolabs). Antisera were affinity purified on a column of immobilized MBP. MBP-C125 SW and WT substrates were expressed in E. coli, then purified as described above.
Microtiter 96-well plates were coated with purified anti-MBP antibody (@ 5-μg/ml), followed by blocking with human serum albumin. Appropriately diluted β-secretase enzyme (5 μl) was mixed with 2.5 μl of 2.2 μM MBP-C125sw substrate stock, in a 50 μl reaction mixture with a final buffer concentration of 20 mM acetate buffer, pH 4.8, 0.06% Triton X-100, in individual wells of a 96-well microtiter plate, and incubated for 1 hour at 37 degrees C. Samples were then diluted 5-fold with Specimen Diluent (0.2 g/l sodium phosphate monobasic, 2.15 g/l sodium phosphate dibasic, 0.5 g/l sodium azide, 8.5 g/l sodium chloride, 0.05% Triton X-405, 6 g/l BSA), further diluted 5-10 fold into Specimen Diluent on anti-MBP coated plates, and incubated for 1 h. Biotinylated SW192 antibodies were used as the reporter. SW192 polyclonal antibodies were biotinylated using NHS-biotin (Pierce), following the manufacturer's instruction. Usually, the biotinylated antibodies were used at about 240 ng/ml, the exact concentration varying with the lot of antibodies used. Following incubation of the plates with the reporter, the ELISA was developed using streptavidin-labeled alkaline phosphatase (Boeringer-Mannheim) and 4-methyl-umbelliferyl phosphate as fluorescent substrate. Plates were read in a Cytofluor 2350 Fluorescent Measurement System. Recombinantly generated MBP-26SW (product analog) was used as a standard to generate a standard curve, which allowed the conversion of fluorescent units into amount of product generated.
This assay protocol was used to screen for inhibitor structures, using “libraries” of compounds assembled onto 96-well microtiter plates.
Heptamers are mapped as P3 to P4′. A dashed line indicates the amino acid at that position is the same as the one immediately above it. […] The substrates for these studies were synthesized using solid support sequential synthesis as described above in 7A. Assays of the inhibitory activity were performed in the MBP C125 assays described in Example 4 and IC50 values were generated. Parent ions from mass spectrum analysis of Examples 7B-7R (see Table 7) where available: […]

SMILES | IC50
CC[C@H](NC(=O)C[C@H](O)[C@H](CC(C)C)NC(=O)[C@H](CCSC)NC(=O)[C@@H](NC(C)=O)C(C)C)C(=O)N[C@@H](C)C(=O)N[C@@H](CCC(=O)O)C(=O)N[C@@H](Cc1ccccc1)C(=O)O [Example 7C] (Ac-VM[Sta][Abu]AEF-OH) | 1 to 10 µM
CSCC[C@H](NC(=O)[C@@H](NC(C)=O)C(C)C)C(=O)N[C@@H](CC(C)C)[C@@H](O)CC(=O)N[C@H](C(=O)N[C@@H](C)C(=O)N[C@@H](CCC(=O)O)C(=O)N[C@@H](Cc1ccccc1)C(=O)O)c1ccccc1 [Example 7D] (Ac-VM[Sta][Phg]AEF-OH) | 1 to 10 µM
CSCC[C@H](NC(=O)[C@@H](NC(C)=O)C(C)C)C(=O)N[C@@H](CC(C)C)[C@@H](O)CC(=O)N[C@@H](C)C(=O)N[C@@H](C)C(=O)N[C@@H](CCC(=O)O)C(=O)N[C@@H](Cc1ccccc1)C(=O)O [Example 7E] (Ac-VM[Sta]AAEF-OH) | 1 to 10 µM
CSCC[C@H](NC(=O)[C@@H](NC(C)=O)C(C)C)C(=O)N[C@@H](CC(C)C)[C@@H](O)CC(=O)N[C@H](C(=O)N[C@@H](C)C(=O)N[C@@H](CCC(=O)O)C(=O)N[C@@H](Cc1ccccc1)C(=O)O)C(C)(C)C [Example 7F] (Ac-VM[Sta][Tle]AEF-OH) | 20 to 50 µM
CC(=O)N[C@H](C(=O)N[C@H](C(=O)N[C@@H](CC(C)C)[C@@H](O)CC(=O)N[C@H](C(=O)N[C@@H](C)C(=O)N[C@@H](CCC(=O)O)C(=O)N[C@@H](Cc1ccccc1)C(=O)O)C(C)C)c1ccccc1)C(C)C [Example 7G] (Ac-V[Phg][Sta]VAEF-OH) | < 1 µM
CC(=O)N[C@H](C(=O)N[C@@H](CC(N)=O)C(=O)N[C@@H](CC(C)C)[C@@H](O)CC(=O)N[C@H](C(=O)N[C@@H](C)C(=O)N[C@@H](CCC(=O)O)C(=O)N[C@@H](Cc1ccccc1)C(=O)O)C(C)C)C(C)C [Example 7I] (Ac-VN[Sta]VAEF-OH) | 1 to 10 µM
CC(=O)N[C@H](C(=O)N[C@@H](Cc1ccccc1)C(=O)N[C@@H](CC(C)C)[C@@H](O)CC(=O)N[C@H](C(=O)N[C@@H](C)C(=O)N[C@@H](CCC(=O)O)C(=O)N[C@@H](Cc1ccccc1)C(=O)O)C(C)C)C(C)C [Example 7J] (Ac-VF[Sta]VAEF-OH) | 1 to 10 µM
CC(=O)N[C@H](C(=O)N[C@@H](CCC(=O)O)C(=O)N[C@@H](CC(C)C)[C@@H](O)CC(=O)N[C@H](C(=O)N[C@@H](C)C(=O)N[C@@H](CCC(=O)O)C(=O)N[C@@H](Cc1ccccc1)C(=O)O)C(C)C)C(C)C [Example 7K] (Ac-VE[Sta]VAEF-OH) | 1 to 10 µM
CC(=O)N[C@H](C(=O)N[C@H](C(=O)N[C@@H](CC(C)C)[C@@H](O)CC(=O)N[C@H](C(=O)N[C@@H](C)C(=O)N[C@@H](CCC(=O)O)C(=O)N[C@@H](Cc1ccccc1)C(=O)O)C(C)C)C(C)C)C(C)C [Example 7L] (Ac-VV[Sta]VAEF-OH) | 20 to 50 µM
CC(=O)N[C@H](C(=O)NCC(=O)N[C@@H](CC(C)C)[C@@H](O)CC(=O)N[C@H](C(=O)N[C@@H](C)C(=O)N[C@@H](CCC(=O)O)C(=O)N[C@@H](Cc1ccccc1)C(=O)O)C(C)C)C(C)C [Example 7M] (Ac-VG[Sta]VAEF-OH) | 1 to 10 µM
CSCC[C@H](NC(=O)[C@@H](NC(C)=O)C(C)C)C(=O)N[C@@H](CC(C)C)[C@@H](O)CC(=O)N[C@@H](C)C(=O)N[C@@H](CCC(=O)O)C(=O)N[C@@H](Cc1ccccc1)C(=O)O [Example 7N] (Ac-VM[Sta]AEF-OH) | 1 to 10 µM
CSCC[C@H](NC(=O)[C@@H](N)C(C)C)C(=O)N[C@@H](CC(C)C)[C@@H](O)CC(=O)N[C@H](C(=O)N[C@@H](CCC(=O)O)C(=O)N[C@@H](Cc1ccccc1)C(=O)O)C(C)C [Example 7R] (H-VM[Sta]VEF-OH) | 1 to 10 µM
